Test results taken from PubChem BioAssay AID1508642 (National Center for Advancing Translational Sciences (NCATS), 2021).
About 200 (0.47%) of roughly 43,000 compounds were called active. The shares of active, inactive and inconclusive entries below differ from those in the screen. Calls come from the whole dose curve; as a rule, active = well fitted cell-killing curve with a large enough effect; inconclusive = small, poorly fitted or top-dose-only effect, or effect the other way; inactive = flat fitted curve, though single readings scatter. Potencies of inconclusive entries are doubtful fits and often do not repeat.

Assay: Cell viability qHTS assay in S16 Pmp22-F2sN cells; note: nearly all actives have a fitted effect of over 65% in size
Settings: S16 Pmp22-F2sN Schwann cells (luciferase reporters placed in the Pmp22 gene) viability, CellTiter-Glo, 24 h; activity change, negative = cytotoxicity: at 57.5 µM (top of the series)
Method in brief: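 Seed 500-1,000 S16 Pmp22-F2sN cells per well in phenol-red-free DMEM with 10% heat-inactivated FBS; pin-add 23 nL compound; incubate 24 h at 37C; add CellTiter-Glo, wait 15 min protected from light; read luminescence.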
% is set by controls: 0 for no effect and ±100 for the full control effect; potency is the fitted concentration of half-maximal effect; tags give direction and shape of the fitted curve.

Row | SMILES | Potency | activity change, negative = cytotoxicity
1 | COc1cccc(-c2nn(C)c3sc(C(=O)NCc4ccc(OC)cc4OC)cc23)c1 | inconclusive: 10 µM [cytotoxic, partial curve] | –
2 | Cc1cccc(NC(=O)Cn2c(=O)n(Cc3ccccc3)c(=O)c3oc4ccccc4c32)c1C | inconclusive: 4.47 µM [cytotoxic, full curve, poor fit] | –
3 | Cc1ccc(CNC(=O)c2c(Nc3c(C)cccc3C)sc(C(=O)c3ccccc3)c2N)cc1 | inconclusive: 7.94 µM [cytotoxic, full curve] | –
4 | Cc1cccc(-n2c(SCC(=O)Nc3ccc(C)c(C)c3)nc3n[nH]c(C)c3c2=N)c1 | inconclusive: 39.8 µM [cytotoxic, single point] | –
5 | COCCCNC(=O)c1ccc(Cn2c(=O)c3ccccc3n(Cc3ccc(Cl)cc3)c2=O)cc1 | inconclusive: 39.8 µM [cytotoxic, single point] | –
6 | CC(=O)N1CCCc2cc(S(=O)(=O)N3CCCC(C(=O)Nc4ccc(C)c(F)c4)C3)ccc21 (stereo not drawn) | – | inactive: -26%
7 | CCc1nc2nc(C)cc(Nc3ccc(F)c(Cl)c3)n2n1 | inconclusive: 25.1 µM [cytotoxic, partial curve, poor fit] | –
8 | CCOC(=O)c1c(C)[nH]c(C)c1S(=O)(=O)N(C)CC(=O)Nc1ccc(C)c(F)c1 | inconclusive: 3.16 µM [rising, partial curve, poor fit] | –
9 | COc1ccc(NC(=O)CCc2c(C)nc3cc(-c4cccc(F)c4)nn3c2C)cc1Cl | – | inactive: -1.76%
10 | CCc1ccc(S(=O)(=O)c2cn(Cc3ccc(OC)cc3)c3cc(OC)c(OC)cc3c2=O)cc1 | – | inactive: -16.5%
11 | CC(=O)N1CCc2c(sc(NC(=O)CSc3ccc(F)cc3)c2-c2nc3ccccc3s2)C1 | inconclusive: 39.8 µM [cytotoxic, single point] | –
12 | O=C(Nc1cccc(C(F)(F)F)c1)C1CCCN(S(=O)(=O)c2cccc3nonc23)C1 (stereo not drawn) | inconclusive: 35.5 µM [rising, single point] | –
13 | CCn1c(C)c(C)c2cc(C(=O)NCCc3cc(OC)ccc3OC)ccc21 | inconclusive: 39.8 µM [cytotoxic, partial curve, poor fit] | –
14 | CC(C)(C)c1ccc(C(=O)Nc2nnc3n2CCS3)cc1 | – | inactive: -22%
15 | COC(=O)c1ccc2c(c1)N(CC(=O)Nc1ccc(C)cc1Cl)C(=O)c1ccccc1S2 | inconclusive: 10 µM [rising, full curve, poor fit] | –
16 | O=C(NCCc1ccc(Cl)cc1)c1cc2c(s1)-c1ccccc1OC2 | inconclusive: 2.51 µM [rising, partial curve, poor fit] | –
17 | COc1ccc(-c2cc(C(F)(F)F)nc(SCC(=O)N(C)Cc3ccccc3)n2)cc1 | inconclusive: 3.55 µM [rising, partial curve, poor fit] | –
18 | Cc1ccc(N(CC(=O)N2CCN(c3cccc(C)c3C)CC2)S(=O)(=O)c2c(C)nn(C)c2C)cc1 | inconclusive: 25.1 µM [cytotoxic, single point] | –
19 | CCOc1ccc(NC(=O)C2CCC(CNS(=O)(=O)c3ccc4c(c3)CCCC(=O)N4)CC2)cc1 (stereo not drawn) | inconclusive: 2.24 µM [cytotoxic, full curve] | –

Row | SMILES | Potency | activity change, negative = cytotoxicity
20 | CN1C(=O)c2ccccc2Sc2ccc(NC(=O)N3CCN(c4cccc(Cl)c4)CC3)cc21 | inconclusive: 35.5 µM [cytotoxic, partial curve, poor fit] | –
21 | CCOC(=O)c1cc2c(=O)n3ccccc3nc2n(C(C)C)c1=NC(=O)c1c(-c2c(F)cccc2Cl)noc1C | inconclusive: 22.4 µM [cytotoxic, partial curve, poor fit] | –
22 | Cc1ccccc1NC(=O)c1c(NC(=O)c2ccncc2)sc2c1CCC(C(C)(C)C)C2 (stereo not drawn) | inconclusive: 39.8 µM [cytotoxic, single point] | –
23 | CNS(=O)(=O)c1cc(-c2nn3c(C)nnc3c3ccccc23)ccc1C | inconclusive: 35.5 µM [rising, partial curve, poor fit] | –
24 | O=C(NCCc1ccc(Cl)cc1)c1ccc(Cn2c(=O)[nH]c3ccccc3c2=O)cc1 | – | inactive: -22.8%
25 | CCOc1ccccc1NC(=O)c1cc2cc(C)ccc2n1C | inconclusive: 31.6 µM [cytotoxic, single point] | –
26 | CSc1ccc(CCNC(=O)c2ccc3c(c2)nc2n3CCCCC2)cc1 | inconclusive: 7.94 µM [rising, full curve, poor fit] | –
27 | Cc1ccc(CSc2ncc(Cl)c(C(=O)Nc3nc4ccc(C)cc4s3)n2)cc1 | – | inactive: -1.72%
28 | CCc1ccc(CNC(=O)C2CCCN(c3nnc(C)c4c(C)n(-c5ccc(OC)cc5)nc34)C2)cc1 (stereo not drawn) | inconclusive: 31.6 µM [cytotoxic, partial curve, poor fit] | –
29 | Cc1ccc2c(c1)C(c1ccccc1)N(C(=O)c1ccc(S(=O)(=O)N3CCCCC3)cc1)CC(=O)N2 (stereo not drawn) | inconclusive: 39.8 µM [cytotoxic, single point] | –
30 | CCc1ccc(CNC(=O)CSc2c3c(nc4ccc(Cl)cc24)CCCC3)cc1 | – | inactive: -1.2%
31 | O=C(CSc1nnc2scc(-c3ccc(Cl)cc3)n12)Nc1cccc(C(F)(F)F)c1 | inconclusive: 3.55 µM [cytotoxic, partial curve, poor fit] | –
32 | CCn1c(=O)c2cc(C(=O)N3CCN(c4cccc(OC)c4)CC3)sc2c2ccccc21 | – | inactive: -11.8%
33 | COc1ccc(-c2cn3nc(N4CCCC(C(=O)Nc5cc(C)ccc5C)C4)sc3n2)cc1 (stereo not drawn) | inconclusive: 39.8 µM [cytotoxic, single point] | –
34 | Cc1cccc(N2CCN(C(=O)C3CCCN(S(=O)(=O)c4ccc5c(c4)oc(=O)n5C)C3)CC2)c1C (stereo not drawn) | – | inactive: -20%
35 | CCn1ccc2cc(S(=O)(=O)N3CCC(C(=O)NCCc4ccccc4Cl)CC3)ccc21 | inconclusive: 0.251 µM [cytotoxic, single point] | –
36 | CCc1ccc(C(=O)c2cnc3ccc(F)cc3c2S(=O)(=O)c2ccccc2)cc1 | – | inactive: -29.9%
37 | COc1ccccc1Cn1cc(C(=O)c2ccc(Cl)cc2)c(=O)c2ccccc21 | inconclusive: 25.1 µM [cytotoxic, single point] | –
38 | Cc1cccc(NC(=O)CCS(=O)(=O)c2cccc3nsnc23)c1C | inconclusive: 0.1 µM [cytotoxic, full curve, poor fit] | –
